# Experimental data as given in the supplement of paper PMC3334620.
# In all, about 33,000 sequences were measured (“E-score (-0.5 to 0.5)”: median about -0.016, highest 2% from about 0.32 on). Some of the results follow.
# Target: T1, Stp1 (UniProt B3LFK1)
# T1 sequence: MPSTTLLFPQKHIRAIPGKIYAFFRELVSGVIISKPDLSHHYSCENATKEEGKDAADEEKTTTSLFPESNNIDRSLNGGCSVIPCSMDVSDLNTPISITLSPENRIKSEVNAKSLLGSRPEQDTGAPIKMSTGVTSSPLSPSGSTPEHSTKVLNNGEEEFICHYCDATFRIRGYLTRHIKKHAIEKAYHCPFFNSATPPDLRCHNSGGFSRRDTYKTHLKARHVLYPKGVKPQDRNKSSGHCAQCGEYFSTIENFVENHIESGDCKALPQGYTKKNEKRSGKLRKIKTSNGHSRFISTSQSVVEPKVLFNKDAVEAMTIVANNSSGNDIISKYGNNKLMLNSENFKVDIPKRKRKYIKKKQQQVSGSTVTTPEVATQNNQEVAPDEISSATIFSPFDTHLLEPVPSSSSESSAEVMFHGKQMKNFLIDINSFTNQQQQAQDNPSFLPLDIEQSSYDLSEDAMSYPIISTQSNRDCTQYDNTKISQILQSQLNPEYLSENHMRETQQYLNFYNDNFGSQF
# Assay: PBM E-score (8-mer binding enrichment) (E-score (-0.5 to 0.5)); higher = stronger / more preferred TF binding; most listed sequences are background and not binding sites
# Conditions: protein concentration: 200 nM; construct: GST-full length
# Method: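 Universal 'all 10-mer' protein binding microarrays (Agilent AMADID 015681) probed with GST-tagged S. cerevisiae TFs (full-length or DBD) made by in vitro transcription/translation (PURExpress), about 100-200 nM. Bound TF was detected with fluorescent anti-GST. Each ungapped 8-mer (which stands for itself and its reverse complement) is scored by the PBM enrichment score (E-score), a modified Wilcoxon-Mann-Whitney statistic from -0.5 to +0.5, computed with the Universal PBM Analysis Suite. Scale: above 0.35 generally sequence-specific binding.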
row,Sequence,PBM E-score
1,GTCCCGTA,0.0409
2,CATGTGCC,0.222
3,CCGTATCC,0.316
4,TTAAAAAA,0.248
5,GTAGCATA,0.0457
6,ATTATTCG,0.202
7,ACCCCGTG,0.236
8,CCGCTGGA,0.0272
9,CGTAATAC,0.186
10,CGAGCGAG,0.107
11,GTAAGGAA,0.0126
12,GGCCGGCC,-0.111
13,ACACCCTC,-0.347
14,ATGCGACA,0.149
15,GCGAACGA,0.0326
16,CTTCTGCA,0.0733
17,GGCAGCAA,0.179
18,AATCCCGG,-0.203
19,CTTGCGGC,0.272
20,CTCCAGGC,-0.162
21,GAATCTGA,-0.0474
22,TCACACAA,-0.0391
23,AACGCACG,0.36
24,ACAATTTA,0.121
25,AGACGTCA,-0.158

row,Sequence,PBM E-score
1,AACTCGGA,-0.0249
2,CTTTCCAA,0.181
3,AAGCACAT,0.0405
4,AAGATGTC,-0.112
5,AATCGTGT,0.0905
6,CACGAGCC,-0.0433
7,AAGTTTGA,0.0416
8,AGCTTGCA,-0.0443
9,ACGTCCGA,-0.0245
10,AGTCTTAC,-0.121
11,ACTCGGCT,-0.0573
12,GATCCGAC,-0.18
13,CGGCAGCC,0.216
14,AATCTTAC,0.144
15,AGTCCATA,-0.028
16,CGTATTCC,0.0285
17,GCAGACCC,-0.107
18,CATGGTGG,-0.199
19,CATAGGAG,0.0407
20,ACTAACCA,0.063
21,GCGCCTAA,0.313
22,ACCCGACG,-0.183
23,AGAGATTA,-0.0422
24,ATCTGAAT,0.0625
25,CCCGGCGC,0.121

row,Sequence,PBM E-score
1,CCGTTGCC,0.247
2,AGCCGTTG,0.26
3,AGGGGGAG,-0.347
4,ACTGAAGA,0.0561
5,AAATCCTA,0.0107
6,ACGCCTCC,-0.102
7,ATCCCCAG,-0.326
8,AGAACCGG,0.0624
9,CTCACAGC,0.0766
10,ACCAATTG,-0.00862
11,ATCTGCGG,0.254
12,CACCGAAA,0.0518
13,AGCGGAAA,0.0606
14,ACTCTCAT,-0.0907
15,CCATGTAA,0.0652
16,AGATACCA,0.101
17,AGTGCAGG,-0.0709
18,CCGAACTC,-0.135
19,GGCTGTCA,-0.0641
20,ACAGGGAG,0.0213
21,AGTCATTG,-0.381
22,CCACGGCA,0.46
23,TCAGGCCA,-0.0493
24,AGTGTTAG,-0.022
25,TAAGGCAA,0.165

row,Sequence,PBM E-score
1,ATACCTTA,-0.00814
2,ACGTAGCC,0.00923
3,ATTTAAGA,0.0246
4,ACATTACC,-0.106
5,CTACGTCC,-0.143
6,GTACCCCA,-0.255
7,ACAGGGCT,-0.0531
8,GGGCTTAC,-0.165
9,AAGGTGTG,-0.0841
10,CCCCTCAA,0.041
11,ACAGGAAA,0.19
12,ACCTCGAA,-0.165
13,ACATGATA,0.21
14,GTCTATCA,-0.0881
15,CCGGGGAC,-0.346
16,ATTAGCCA,0.0367
17,AGGTTACA,-0.0575
18,GCAAGTGA,-0.0866
19,TAGGACAA,0.0561
20,GAATACAC,0.0184
21,ACAGAATA,0.0434
22,GCTGTTCA,-0.00269
23,AATTCACG,0.0873
24,GTGCAGCA,-0.0575
25,CATGGGCA,-0.0295

row,Sequence,PBM E-score
1,GCCACCTA,-0.0547
2,AATCCAAA,0.0534
3,CCCGTGGC,0.046
4,AACATCCC,-0.0503
5,GGGACGCA,-0.292
6,AACTTTTC,0.0507
7,AGGGCCGG,-0.16
8,AACTGGGC,-0.297
9,CAACCTAC,-0.153
10,AAGTAGGG,-0.0144
11,AAACTGCA,0.0943
12,CGCTCTAG,-0.191
13,AGGTTCCC,-0.264
14,CAGGACGA,-0.0812
15,AATTGACC,0.142
16,CTATCCCC,-0.317
17,CGCACTAG,-0.00448
18,ACGAGAAT,0.0498
19,CAGTATTA,0.1
20,AATATCCG,0.198
21,GTCAGTAA,0.0196
22,AACTAACA,0.25
23,CCTACTGC,0.107
24,CATCCCTA,0.0183
25,GTCTACAC,-0.114

row,Sequence,PBM E-score
1,AGAGCTAT,-0.179
2,ACCGGAAG,0.0713
3,ACCTATGA,-0.213
4,ACAATTGT,0.0962
5,CCCTATCA,-0.152
6,CGAGCGAC,-0.0772
7,AAGCATCT,-0.17
8,AACCACTC,0.0101
9,AGTAACCA,-0.0155
10,AGGTGTAG,-0.296
11,AATCGTAT,0.114
12,CTAGGCTA,-0.248
13,AGCGGCAC,0.457
14,CATGCAGA,-0.0125
15,CGCGTTTC,-0.0791
16,AGCGGTGC,0.0287
17,GATATTAC,0.164
18,GTCTGGGA,-0.297
19,AAATAGAA,0.0784
20,CCCTTGGC,-0.27
21,CGAGTAAA,0.142
22,AAATATTC,0.117
23,GGGTAACC,-0.252
24,GAGTCGCC,0.0137
25,GGTACTGA,-0.182

row,Sequence,PBM E-score
1,ACTATTCC,0.0191
2,ATGTGCGG,0.213
3,CGGTTGAG,0.11
4,AAGTCGGT,-0.167
5,GTTCGTTA,0.17
6,GCGCTAAA,0.0766
7,CGATTTAG,0.0951
8,GGCACTAC,0.303
9,AGAACACG,0.109
10,AACGCGTA,0.104
11,GTTACTGA,0.205
12,GGCGTTGA,0.2
13,CAACACAG,0.026
14,TGCTGGAA,0.0356
15,GGCCGAGA,0.0415
16,ACGCCAAC,-0.00633
17,ACCTTGCC,-0.0638
18,GGAATCAA,0.0147
19,ACACGCCC,-0.181
20,CATACCCG,0.0455
21,GACATGGC,-0.159
22,GACCCGGA,-0.296
23,CCAAGTGC,-0.0654
24,CGGACAAC,0.114
25,CCCGAGCA,-0.16

row,Sequence,PBM E-score
1,ATAGTGAA,0.0395
2,GAGTACAA,0.144
3,ATTCAGTA,0.133
4,ACACGGGT,0.202
5,CCAGCTAA,-0.0143
6,ATGTCTTA,-0.0654
7,CCAGAGTC,-0.166
8,GTAACGCA,0.071
9,AAAAGCTG,-0.0459
10,ACAAACAT,0.109
11,CGAACGGA,0.207
12,CACATGAC,-0.0361
13,AATAATGT,0.0838
14,GTAATGCA,-0.141
15,TCCCAAGA,-0.00967
16,GTGATGAA,-0.245
17,GACCGGCA,0.101
18,ACCTACAC,-0.269
19,AATGGATC,0.0312
20,ACCTCAGA,-0.122
21,GAGATAAA,0.117
22,AGGCCGCC,-0.0139
23,ACCGGCCA,-0.101
24,GAGATCCC,-0.162
25,ATAGAGGA,-0.275

row,Sequence,PBM E-score
1,ACCTCTCG,-0.295
2,AGGCAGTG,0.177
3,ATGTAGCG,-0.174
4,ATGGTCAC,-0.0726
5,CGCGAGAG,0.0481
6,ACGGAAAA,0.127
7,AACCGGAC,-0.168
8,TAATCGGA,0.126
9,ATCCTCGA,-0.0372
10,CTCACAAC,0.219
11,CGTTAAGA,0.104
12,TGTGGTAA,0.0259
13,AGTCACAT,-0.0417
14,ACCTGCCA,-0.0478
15,GGCTGCAA,0.06
16,TCTATGAA,0.1
17,CCAAAACA,-0.022
18,CCACAGAG,0.0573
19,ATCCCAGA,-0.151
